# Measurements taken from PubChem BioAssay AID588342 (National Center for Advancing Translational Sciences (NCATS), 2011).
# About 25,000 (6.9%) of roughly 360,000 compounds were called active. Inconclusive means that the source gave no clear call. Such entries were picked first, then a sample of the others. Calls come from the whole dose curve; as a rule, active = well fitted inhibition curve with a large enough effect; inconclusive = small, poorly fitted or top-dose-only effect; inactive = flat fitted curve, though single readings scatter. Potencies of inconclusive entries are doubtful fits and often do not repeat.
# Target: Luciferin 4-monooxygenase (Photinus pyralis) (UniProt P08659)
# Test: qHTS profiling assay for firefly luciferase inhibitor/activator using purifed enzyme and Km concentrations of substrates (counterscreen for miR-21 project); note: nearly all actives have a fitted effect of over 55% in size;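 for activity change, negative = inhibition: plate controls were vehicle for no effect and reference inhibitor for full effect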
# Details: purified FLuc, luminescence inhibition; series mostly up to 57.5 µM; activity change, negative = inhibition: at the top concentration
# Procedure, shortened: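 Purified P. pyralis luciferase (10nM final) with 10uM D-luciferin and 10uM ATP (Km levels) in 50mM Tris acetate pH 7.5, 10mM Mg acetate, 0.01% Tween-20, 0.05% BSA; qHTS 6-point titration, ~60 µM downward; luminescence read.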
# Potency is the fitted concentration of half-maximal effect; tags give direction and shape of the fitted curve.
# Chain of UniProt P08659 (P08659 whole entry, looked up): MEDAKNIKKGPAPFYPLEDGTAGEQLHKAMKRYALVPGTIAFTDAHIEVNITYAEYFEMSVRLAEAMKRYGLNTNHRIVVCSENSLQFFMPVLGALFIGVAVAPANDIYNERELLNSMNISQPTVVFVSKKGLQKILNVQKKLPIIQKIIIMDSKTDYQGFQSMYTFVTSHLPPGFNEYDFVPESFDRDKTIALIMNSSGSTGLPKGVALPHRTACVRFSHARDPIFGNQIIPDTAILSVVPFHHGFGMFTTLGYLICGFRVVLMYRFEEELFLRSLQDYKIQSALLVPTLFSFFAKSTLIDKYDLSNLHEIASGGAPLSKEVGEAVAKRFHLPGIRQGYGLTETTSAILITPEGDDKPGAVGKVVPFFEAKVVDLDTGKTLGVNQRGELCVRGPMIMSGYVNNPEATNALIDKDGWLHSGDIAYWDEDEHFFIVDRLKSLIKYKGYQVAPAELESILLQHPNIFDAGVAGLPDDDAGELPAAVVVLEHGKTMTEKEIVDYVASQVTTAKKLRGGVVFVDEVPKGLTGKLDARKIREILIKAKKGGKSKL
SMILES,"activity change, negative = inhibition",Potency
COc1ccc(OC)c(CCNC(=O)CCCn2c(=O)c3cccn3c3cccnc32)c1,inactive: -0.342%,
O=C(NCc1ccccc1)c1ccc(CS(=O)(=O)c2c(Cl)cccc2Cl)o1,inactive: -3.04%,
CCCn1nnnc1COc1ccc(C(N)=O)cc1,inactive: -1.17%,
CNC(=S)Nc1ccc(C23CC4CC(CC(C4)C2)C3)cc1,,"inconclusive: 21.3 µM [inhibitor, partial curve, poor fit]"
Cc1ccc(NC(=O)Cn2nc(C)c3nn(-c4ccc(Cl)cc4)c(C)c3c2=O)cc1F,inactive: -3.19%,
O=C(/C=C/c1ccc([N+](=O)[O-])cc1)NCC1CCCO1 (stereo not given),,"inconclusive: 37.9 µM [inhibitor, partial curve, poor fit]"
CC(=O)c1cccc(N=Nc2c(-c3ccccc3)[nH]n(-c3ccccc3)c2=O)c1,,"inconclusive: 9.53 µM [inhibitor, partial curve, poor fit]"
COc1ccc(CNC(=O)c2cnn(-c3ccccc3)c2-n2cccc2)cc1OC,inactive: -1.08%,
O=C(Nc1ccc(-c2csc(-c3ccccc3)n2)cc1)c1ccccc1Cl,,"inconclusive: 6.75 µM [inhibitor, partial curve]"
Cc1ccccc1N=Nc1c(C)[nH]n(C(N)=S)c1=O,,"inconclusive: 5.36 µM [inhibitor, single point]"
CCN(CC)CCN(C(=O)c1ccco1)c1nc2ccc(F)cc2s1,inactive: -2.25%,
CCOc1ccc(-c2cc(C(=O)O)c3ccccc3n2)cc1,,active: 0.675 µM
O=C(O)c1cc(-c2ccc(O)cc2)nc2ccccc12,,"inconclusive: 33.8 µM [inhibitor, partial curve, poor fit]"
NC(=O)COC(=O)c1ccc(-c2ccccc2)cc1,,"inconclusive: 23.9 µM [inhibitor, partial curve]"
COc1cc(C#N)ccc1OCC(=O)c1ccc2c(c1)OCCO2,,"inconclusive: 26.9 µM [inhibitor, partial curve]"
C=C(C)CSc1cc(C)nc2c(-c3ccccc3)c(C)nn12,,"inconclusive: 37.9 µM [inhibitor, single point]"
O=c1c2ccccc2nnn1Cc1ccc(Br)cc1,inactive: -6.92%,
CN(C)c1ccnc(Oc2ccc(Cl)cc2)c1C#N,,"inconclusive: 23.9 µM [inhibitor, partial curve]"
O=C(Nc1nnc(-c2ccccc2)s1)c1cc(S(=O)(=O)N2CCOCC2)c(Cl)cc1Cl,,"inconclusive: 23.9 µM [inhibitor, single point]"
Cc1ccc(C)c(N2CCN(S(=O)(=O)c3cc(C(=O)Nc4ccccc4C(F)(F)F)ccc3F)CC2)c1,inactive: 1.56%,
CC(Oc1ccccc1)C(=O)Nc1c(C(=O)Nc2cccc(F)c2)oc2ccccc12 (stereo not given),inactive: -1.23%,
CCc1ccc(S(=O)(=O)Nc2cc3c(cc2C)n(C)c(=O)c(=O)n3C)cc1,inactive: -11.5%,
CC1Cc2cc(/C=C3/SC(N4CCC(C(N)=O)CC4)=NC3=O)ccc2O1 (stereo not given),,"inconclusive: 26.9 µM [inhibitor, single point]"

SMILES,"activity change, negative = inhibition",Potency
O=C(NCC1CC1)Nc1cccc(Cl)c1,,"inconclusive: 26.9 µM [inhibitor, partial curve, poor fit]"
Cc1cccn2c(=O)c(C=Nc3ccccc3)c(NCCO)nc12,,"inconclusive: 30.1 µM [inhibitor, partial curve, poor fit]"
CCOc1ccc(S(=O)(=O)n2cc(F)c(=O)[nH]c2=O)cc1,,"inconclusive: 26.9 µM [inhibitor, single point]"
COc1ccccc1C/C(N)=N/OC(=O)/C=C/c1ccccc1,,"inconclusive: 37.9 µM [inhibitor, partial curve, poor fit]"
CCc1nnc(NS(=O)(=O)c2ccc(NC(=O)c3cccc4ccccc34)cc2)s1,,"inconclusive: 16.9 µM [inhibitor, partial curve]"
Cc1cc(C(=O)N/N=C/c2c[nH]c3ccccc23)cs1,,active: 15.1 µM
CCOc1ccc2c(c1)C(=O)C(=O)N2CC1COc2ccccc2O1 (stereo not given),,"inconclusive: 30.1 µM [inhibitor, partial curve, poor fit]"
CN1CCN(C(=S)c2cn(CCOc3ccccc3)c3ccccc23)CC1,,"inconclusive: 37.9 µM [inhibitor, single point]"
Cc1ccc(NC(=O)c2ccc3c(O)c(S(=O)(=O)c4ccc(Cl)cc4)c(=O)[nH]c3c2)cc1,,"inconclusive: 8.49 µM [inhibitor, partial curve]"
Cc1cc(=O)oc2cc(OC(=O)c3ccccc3)ccc12,,active: 5.36 µM
O=C(COC(=O)c1ccccc1)NCc1cccs1,,"inconclusive: 23.9 µM [inhibitor, partial curve, poor fit]"
Nc1nc(Nc2ccccc2)sc1C(=O)c1ccccc1,,active: 19 µM
C/C(=N\NC(=O)c1nn(C)c(C)c1Br)c1cccc(NC(=O)c2ccoc2C)c1,,active: 2.39 µM
Cc1occc1C(=O)N/N=C/c1cccs1,,"inconclusive: 21.3 µM [inhibitor, partial curve]"
Cc1cccc(OCCSc2cc(C)nc(N)n2)c1,,"inconclusive: 21.3 µM [inhibitor, partial curve, poor fit]"
O=C(Nc1ccc(Cl)cc1)Nc1ccc(S(=O)(=O)Nc2ncccn2)cc1,,"inconclusive: 26.9 µM [inhibitor, partial curve, poor fit]"
CCc1ccc(/C=N/NC(=O)c2cc(C)on2)s1,,"inconclusive: 15.1 µM [inhibitor, partial curve]"
c1ccc(-c2ccc3c(c2)c2c4n3CCN=C4CCC2)cc1,,"inconclusive: 26.9 µM [inhibitor, single point]"
NS(=O)(=O)c1ccc(CCNC(=O)c2ccc(NS(=O)(=O)c3ccc4[nH]c(=O)[nH]c4c3)cc2)cc1,inactive: 2.47%,
O=C(C(c1ccccc1)c1ccccc1)N1CCCc2ccccc21,,"inconclusive: 26.9 µM [inhibitor, single point]"
CC(=O)c1ccc(Nc2cnn(C34CC5CC(CC(CC(=O)O)(C5)C3)C4)c(=O)c2Cl)cc1,inactive: -0.875%,
COc1ccc(CNC(=O)C(=O)NCC(c2ccco2)S(=O)(=O)c2cccs2)cc1 (stereo not given),inactive: 0.373%,
